Results from the supplement of paper PMC11417369.
± gives the standard deviation of the averaged measurements. The list shows a part of the results.

Each sequence was assayed on PfAP2-EXP AP2 domain (GST-tagged) (assay: gcPBM binding intensity (ln(normalized median fluorescence intensity)); higher = stronger DNA binding).
Method in brief: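 In this array assay, P. falciparum DNA-binding domains with a GST tag, expressed in E. coli, were applied for 1 h to primer-extended double-stranded 36-bp intergenic genomic probes and negative controls on an Agilent 4 × 180k array. Bound protein was visualised with Alexa488 anti-GST antibody at 488 nm. Binding intensity is the highest Masliner-normalised natural-log median intensity across replicate spots of either probe orientation.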

Sequence	gcPBM binding intensity (ln)
AAAAAAAAAGTATTATGTACATAAAAATAAAAAAAT [XGTACX_site4166]	8.76 ± 0.52
TATGATTCATAATAGTGTACGTAAAAATTGACTAGA [XGTACX_site5376]	9.16 ± 0.44
TATTAAAATATGTCAGTTCTTAAAAAGTTGATGAGT [GTGCAC_negctrl_site77]	8.28 ± 0.34
AAAATGTATATATAAACATGCACACGTGGTTGTATA [TGCATGCA_site847]	9.04 ± 0.43
TATCGTTATATAATATGTACATATAAAATTTAAATT [XGTACX_site1887]	8.8 ± 0.3
TATATATTATGACCACCACACACCTATACGCATAAC [CACACA_site2447]	8.98 ± 0.54
TCTTAAATTTCTTTATGTACATAATTAATATATTTA [XGTACX_site4456]	8.41 ± 0.2
ATGATAGTATGTATGAGTACGAAAAAAAAAAATTAA [XGTACX_site32]	8.7 ± 0.48
AAATGCAAATGATGATGTACATACAAAAATTAAATT [XGTACX_site5323]	8.91 ± 0.45
ATATATATATATATTGTACACACATTTATGCATATA [CACACA_site9055]	10 ± 0.2
TGTGGGAATAACCACACACACACACCCATATATATA [CACACA_site5876]	8.71 ± 0.44
ATATATATATATATATGTACATATCACTTTAAATAT [XGTACX_site3859]	10.1 ± 0.38
TTTTCTTAAAAAATCAAACACACATATATATATACA [CACACA_site2297]	8.55 ± 0.51
TACTATAAGATATATACACACAAGAAATACAAAACG [CACACA_site6764]	8.97 ± 0.59
ATACACATTCGAAATAACAAAAAAATACATACACAT [GTGCAC_negctrl_site628]	8.78 ± 0.58
GAATATGAATATTTGCGTACTTATATAACTGTTCTA [XGTACX_site883]	8.72 ± 0.33
AAAAAAAATAATAATACACACAATATGATATGTACA [CACACA_site850]	8.35 ± 0.45
ATGATTATTTTAAAAAGTACTAATTATTATTTTTTT [XGTACX_site7242]	8.28 ± 0.34
TGCTTAATTTACGTGGGTACATACACCTCATATATT [XGTACX_site3093]	8.89 ± 0.36
TTTTTATACAATTAGACACACACAAAAAGTATATAT [CACACA_site8272]	8.82 ± 0.45
ATATATGTATATTTTTGTACGCATAAATATATTTTT [XGTACX_site827]	8.63 ± 0.4
TTAATACATATATATATATTATATATATATATATAT [TGCATGCA_negctrl_site177]	9.6 ± 0.51

Sequence	gcPBM binding intensity (ln)
TATTTTTCCATAAAAATTTATATAGAAACAAATAAT [GTGCAC_negctrl_site103]	8.26 ± 0.33
ATTATTTTAATTTTAATTTTTTTTTTTTTTTGTTTT [CACACA_negctrl_site1063]	8.14 ± 0.45
CCCTTTTATTAAAATTCACACACATAAATTTTTATA [CACACA_site8611]	8.53 ± 0.39
TTACCGTAAAAATTTTGTACATAAAATAATATATAA [XGTACX_site532]	8.66 ± 0.37
GTATGTGTGTCAAGTCGTACTTACCTTTAAATTTTT [XGTACX_site2507]	8.91 ± 0.43
GATATAAAATATTGGTGTACTTTTTTTTTTTTTTTT [XGTACX_site7174]	8.485 ± 0.021
CACATACATATATATACACACAAATATATATACACA [CACACA_site8164]	8.48 ± 0.39
GAGTGAGCTAATAAAAGTACGTAATAAACAAACGCA [XGTACX_site131]	8.93 ± 0.47
ACCATGAAAATATTATGTACATATGTATTATATATA [XGTACX_site408]	8.56 ± 0.32
ATAGCTGTATTTAATACACACAAAACTTTCATTCCA [CACACA_site5868]	8.49 ± 0.42
TTTTTTTGTTTTGTTTTTTTTTTTTTTTTTTTTTTG [CACACA_negctrl_site570]	8.09 ± 0.51
TTAAAAAAAAAACACACACACATACACATATATATA [CACACA_site3299]	8.77 ± 0.33
TTTTTATATTTTTGCACACATTCTTTACTCTTCAAA [CACACA_site2210]	9.19 ± 0.39
TATATATATGGACACACACACATATAAATAAATAAA [CACACA_site4406]	8.74 ± 0.36
TGTGAAGTACCGAATGTGCACTGTGTGTGTTCTTTT [GTGCAC_site9613]	8.84 ± 0.18
ATAATTAATAAATAATGTACATATATATTATATTTT [XGTACX_site8546]	8.23 ± 0.21
TTTTTTTTTTTTTTTTTTTCTATTTTACTGTTTCGT [CACACA_negctrl_site850]	8.04 ± 0.4
ATATAATAGTTATATTGTACATAAATTATACACCTT [XGTACX_site628]	8.47 ± 0.34
GACAAAAAATTAAAATAAAATAATAATATAATAAAA [GTGCAC_negctrl_site234]	8.35 ± 0.38
ATACGCACACATATATGTACATATTGTATATATATA [XGTACX_site3962]	9.065 ± 0.007
TATAAACACCCATATAAACACACATATAAACCAACA [CACACA_site8790]	8.73 ± 0.43
ACAATTTACACTTAAACACACAAAAAAAAATTATAT [CACACA_site2065]	8.5 ± 0.64
